Test results reported in paper PMC8329185 (2021).

Target: T1, GST-TrnSR-D750R/D751R (without mCherry) (human, UniProt Q9Y5L0 1-923, D750R | D751R)
T1 sequence: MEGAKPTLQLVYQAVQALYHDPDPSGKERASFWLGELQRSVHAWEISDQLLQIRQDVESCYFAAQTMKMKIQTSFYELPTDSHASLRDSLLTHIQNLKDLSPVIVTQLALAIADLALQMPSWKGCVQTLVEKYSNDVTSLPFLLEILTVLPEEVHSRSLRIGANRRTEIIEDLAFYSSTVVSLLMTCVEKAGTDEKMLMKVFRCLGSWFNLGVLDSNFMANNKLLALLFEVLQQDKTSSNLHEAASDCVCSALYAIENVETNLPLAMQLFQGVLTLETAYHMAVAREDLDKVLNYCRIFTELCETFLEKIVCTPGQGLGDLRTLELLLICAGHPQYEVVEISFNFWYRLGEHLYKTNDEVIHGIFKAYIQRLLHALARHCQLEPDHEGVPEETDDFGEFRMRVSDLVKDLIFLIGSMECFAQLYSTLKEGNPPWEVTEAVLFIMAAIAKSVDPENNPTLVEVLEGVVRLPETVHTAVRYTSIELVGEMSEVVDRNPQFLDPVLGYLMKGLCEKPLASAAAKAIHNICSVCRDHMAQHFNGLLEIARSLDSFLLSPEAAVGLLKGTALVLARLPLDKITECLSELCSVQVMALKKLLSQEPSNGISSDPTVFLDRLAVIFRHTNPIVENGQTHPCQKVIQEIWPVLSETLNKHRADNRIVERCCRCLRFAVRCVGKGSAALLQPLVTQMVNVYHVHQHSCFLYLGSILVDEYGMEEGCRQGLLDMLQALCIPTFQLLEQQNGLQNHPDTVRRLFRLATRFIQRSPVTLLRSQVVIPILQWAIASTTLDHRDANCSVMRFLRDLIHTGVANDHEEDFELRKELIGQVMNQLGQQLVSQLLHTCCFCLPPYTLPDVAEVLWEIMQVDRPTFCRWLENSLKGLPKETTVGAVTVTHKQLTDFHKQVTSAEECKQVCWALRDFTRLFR
Assay: SPR

koff: 0.00039 s⁻¹
B1: His6-DNAJB1 (natural protein)
chain: MGKDYYQTLGLARGASDEEIKRAYRRQALRYHPDKNKEPGAEEKFKEIAEAYDVLSDPRKREIFDRYGEEGLKGSGPSGGSGGGANGTSFSYTFHGDPHAMFAEFFGGRNPFDTFFGQRNGEEGMDIDDPFSGFPMGMGGFTNVNFGRSRSAQEPARKKQ[about 150 residues not printed]PERIPQTSRTVLEQVLPI
